{
  "source": "patent US20100330697A1",
  "about": "“COMPLEXES OF TRPC DOMAINS AND SESTD1 DOMAINS AND METHODS AND USES INVOLVING THE SAME” (SANOFI-AVENTIS, priority 2007, published 2010)",
  "key": {"[1]": {"system": "mTRPC5-YFP (HM1-C5Y cells)", "experiment": "Electrophysiological measurement of agonist-induced ion currents in HM1 cell line stably expressing mTRPC5-YFP", "assay_type": "cell-based, murine", "conditions": "n=10 carbachol, n=6 trypsin", "description": "(§1) HM1 cells were transfected with 4 μg mTRPC5-YFP construct using Lipofectamine 2000. The construct was generated by inserting a XbaI/NotI fragment of mTRPC5-GFP (Strubing C, Krapivinsky G, Krapivinsky L, & Clapham D E (2003). Formation of novel TRPC channels by complex subunit interactions in embryonic brain. J Biol Chem 278, 39014-39019) into pcDNA3.1(−)zeo. The YFP fusion was obtained by joining a NotI/EcoRI cut YFP-PCR fragment to the channel C-terminus. 24 hrs post transfection clonal selection started by cultivating the cells in complete medium (DMEM/Nutrient F12 (with glutaMAX I; Invitrogen, Karlsruhe, Germany) supplemented with 10% (v/v) FBS (PAA, Pasching, Austria), 1 mM glutamine 400 μg/mL geneticine, 50 μg/mL zeocin (all from Invitrogen, Karlsruhe, Germany)). After several days selection single clones were isolated by manual picking of grown colonies. One clone was selected for further studies. Functional expression of the ion channel was tested by electrophysiological measurements. Current densities of carbachol and trypsin-induced ion currents measured as described previously (Strubing C, Krapivinsky G, Krapivinsky L, & Clapham D E (2001). TRPC1 and TRPC5 form a novel cation channel in mammalian brain. Neuron 29, 645-655) were 15.9±5.5 pA/pF (n=10, carbachol) and 127.8±57.6 pA/pF (n=6, trypsin)."}, "[2]": {"system": "non-transfected HM1 cells", "experiment": "Electrophysiological measurement of agonist-induced ion currents in non-transfected HM1 cells", "assay_type": "cell-based", "description": "as §1"}, "[3]": {"experiment": "Cova-PIP plate binding assay (DELFIA)", "conditions": "plates loaded with 100 pmol substrate per well; varying amounts of SESTD1", "description": "The GST-tagged PH-domain of LL5-α, GST alone or GST-SESTD1 were diluted in blocking buffer a) for PIP strips (Example 8a). Cova-PIP specificity plates (Echelon, Salt Lake City, USA) loaded with 10 or 100 pmol PIPn per well were incubated with 100 μL protein solution per well for 3 hrs at RT. Plates were washed manually 3 times with blocking buffer a) for PIP strips before 100 μL anti-GST (1:1,000 in blocking buffer a) for PIP strips were added to each well and incubated 1 hr at RT. Plate was washed 4 times with TBST (150 mM NaCl, 10 mM Tris-HCl, 0.1% Tween 20, pH8) using an automatic plate washer.\nFor dissociation-enhanced lanthanide fluorescence immunoassays (DELFIA) 100 μL secondary Eu-N1-labeled anti-rabbit antibody (500 ng/mL in blocking buffer a) for PIP strips were added per well and incubated 1 hr at RT. […] After 20 min incubation fluorescence of the lanthanide was excited (Aexc=340 nm) and read (λexc=620 nm) in a Tecan Ultra plate reader (Tecan, Crailsheim, Germany).\nFIG. 14: Detection of SESTD1-phospholipid binding in Cova-PIP specificity plates using DELFIA. […] Bound protein was detected with anti-GST (1:1,000) and secondary Eu-N1-labeled goat anti-rabbit antibody (50 ng/well). Lanthanide fluorescence (λexc=340 nm, λem=620 nm) was measured."}, "[4]": {"experiment": "PIP strip phospholipid overlay assay", "assay_type": "binding", "conditions": "500 ng/mL GST-SESTD1; 60 nM or 2.5 μM free Ca2+", "description": "PIP strips (Invitrogen, Karlsruhe, Germany) are commercially available nitrocellulose membranes containing 100 μmol samples of 15 different phospholipids and a blank sample. They were blocked with different blocking buffers for PIP strips that are composed of 3% essentially fatty acid free BSA (Sigma, Munich Germany) in • a) TBST (150 mM NaCl, 10 mM Tris-HCl, 0.1% Tween 20, pH 8), • b) TBST with 0.06 μM free Ca^2+ (150 mM NaCl, 10 mM Tris-HCl, 1 mM EGTA, 1 mM MgCl2, 0.9 mM CaCl2, 0.1% Tween 20, pH 8) • c) TBST with 2.5 μM free Ca^2+ (150 mM NaCl, 10 mM Tris-HCl, 1 mM EGTA, 1 mM MgCl2, 1 mM CaCl2, 0.1% Tween 20, pH 8) for 1 hr (RT) and subsequently incubated with blocking buffer a) containing 500 ng/mL purified GST or blocking buffer b) or c), respectively, with 500 ng/mL GST-SESTD1 (4 hr, RT). After washing (2 times with the individual blocking buffers and subsequently once with blocking buffer a)) they were incubated at 4° C. overnight with the first antibody anti-GST (1:2,000 in blocking buffer a)). […] The membranes were washed again three times with TBST, incubated with 1 mL Lumi-LightPLUS Western blotting substrate (5 min) (Roche, Mannheim, Germany) and the chemiluminescent signals were analyzed with a Lumi Imager (Roche, Mannheim, Germany).\nFIG. 13: SESTD1 binding of phospholipids is Ca^2+-dependent. […] Signals were detected by enhanced chemiluminescence (ECL)."}},
  "data": [
    {"molecule": "C[N+](C)(C)CCOC(N)=O", "note": "[carbachol]", "values": [
      {"measurement": "Current densities of carbachol and trypsin-induced ion currents", "setting": "[1]", "result": "15.9±5.5", "unit": "pA/pF"},
      {"measurement": "Currents induced by carbachol or trypsin", "setting": "[2]", "result": "no significant currents"}
    ]},
    {"molecule": "trypsin", "values": [
      {"measurement": "Current densities of carbachol and trypsin-induced ion currents", "setting": "[1]", "result": "127.8±57.6", "unit": "pA/pF"},
      {"measurement": "Currents induced by carbachol or trypsin", "setting": "[2]", "result": "no significant currents"}
    ]},
    {"molecule": "GST-SESTD1: recombinant human SESTD1 N-terminally fused with GST, expressed in E. coli (protein, left off: a dimerising Fc or GST, recombinant human SESTD1 N-terminally fused with GST, expressed in E. coli) MEASVILPILKKKLAFLSGGKDRRSGLILTIPLCLEQTNMDELSVTLDYLLSIPSEKCKARGFTVIVDGRKSQWNVVKTVVVMLQNVVPAEVSLVCVVKPDEFWDKKVTHFCFWKEKDRLGFEVILVSANKLTRYIEPCQLTEDFGGSLTYDHMDWLNKRLVFEKFTKESTSLLDELALINNGSDKGNQQEKERSVDLNFLPSVDPETVLQTGHELLSELQQRRFNGSDGGVSWSPMDDELLAQPQVMKLLDSLREQYTRYQEVCRQRSKRTQLEEIQQKVMQVVNWLEGPGSEQLRAQWGIGDSIRASQALQQKHEEIESQHSEWFAVYVELNQQIAALLNAGDEEDLVELKSLQQQLSDVCYRQASQLEFRQNLLQAALEFHGVAQDLSQQLDGLLGMLCVDVAPADGASIQQTLKLLEEKLKSVDVGLQGLREKGQGLLDQISNQASWAYGKDVTIENKENVDHIQGVMEDMQLRKQRCEDMVDVRRLKMLQMVQLFKCEEDAAQAVEWLSELLDALLKTHIRLGDDAQETKVLLEKHRKFVDVAQSTYDYGRQLLQATVVLCQSLRCTSRSSGDTLPRLNRVWKQFTIASEERVHRLEMAIAFHSNAEKILQDCPEEPEAINDEEQFDEIEAVGKSLLDRLTVPVVYPDGTEQYFGSPSDMASTAENIRDRMKLVNLKRQQLRHPEMVTTES", "values": [
      {"measurement": "Binding on Cova PIP specificity plates", "setting": "[3]", "result": "bound specifically to all phosphoinositides"},
      {"measurement": "Binding to phosphatidyl-inositol-mono- and diphosphates (PIP, PIP2) and phosphatidic acid", "setting": "[4]", "result": "Specific binding"}
    ]}
  ]
}
